Laboratory results: PubChem BioAssay (NCI)
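These data come from cells grown in 96-well plates and exposed to compound for 48 hours at five concentrations. TGI denotes the concentration required for complete inhibition of growth.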 A number of entries come with more than one value. This list holds those alone. The source may hold further records. The records of an entry are repeats (runs, samples, wells, individuals or studies). Records carry a tag for their origin. Letters count within one entry.

System: OVCAR-5 ovarian
Assay: NCI tumour cell line growth inhibition, 48 h

OCc1ccc(-c2nn(Cc3ccccc3)c3ccccc23)o1
TGI: 437 nM [sample A, mean of 2 tests] and 26.9 µM [sample B, 1 test]
